Assay results taken from patent US20230279246A1, “MOLECULE-CONTAINING SURFACES AND METHODS OF PREPARATION THEREOF” (University of Durham, priority 2020, published 2023).

Test system: Gram-positive Staphylococcus aureus (FDA209P, an MSSA strain; ATCC 6538P)
Test: Antibacterial testing of coated substrates, CFU plate counting
Conditions: relative to untreated substrate; for Bacteria Loss/Log10 Reduction S. aureus (Gram-positive): coated PET film, 4 h at 30 °C, mean ± standard deviation; for Log10 Reduction S. aureus: plasma poly(4-vinylaniline) series, title: polypropylene film, text: PET substrates, average ± standard deviation

Compound	Bacteria Loss/Log10 Reduction S. aureus (Gram-positive)	Bacteria Loss/Log10 Reduction S. aureus (Gram-positive) (listed as Tannic acid-only)	Bacteria Loss/Log10 Reduction S. aureus (Gram-positive) (listed as cinnamaldehyde)	Log10 Reduction S. aureus (listed as Cinnamaldehyde-only)	Log10 Reduction S. aureus (listed as cinnamaldehyde-only)
O=C(OC[C@H]1O[C@@H](OC(=O)c2cc(O)c(O)c(OC(=O)c3cc(O)c(O)c(O)c3)c2)[C@H](OC(=O)c2cc(O)c(O)c(OC(=O)c3cc(O)c(O)c(O)c3)c2)[C@@H](OC(=O)c2cc(O)c(O)c(OC(=O)c3cc(O)c(O)c(O)c3)c2)[C@@H]1OC(=O)c1cc(O)c(O)c(OC(=O)c2cc(O)c(O)c(O)c2)c1)c1cc(O)c(O)c(OC(=O)c2cc(O)c(O)c(O)c2)c1 [Tannic Acid, tannic acid]	0.13 ± 0.07 Log10 Reduction	only a modest reduction in viability	–	–	–
O=C/C=C/c1ccccc1 [Cinnamaldehyde, trans-cinnamaldehyde]	0.29 ± 0.07 Log10 Reduction	–	very small antibacterial effect	0.29 ± 0.07 Log10 Reduction	very small effect
